# Data published in PubChem BioAssay AID2546 (National Center for Advancing Translational Sciences (NCATS), 2010).
# Out of some 310,000 compounds screened, about 11,000 (3.5%) were called active. Inconclusive means that the source gave no clear call. Such entries were picked first, then a sample of the others. Calls come from the whole dose curve; as a rule, active = well fitted inhibition curve with a large enough effect; inconclusive = small, poorly fitted or top-dose-only effect, or effect the other way; inactive = flat fitted curve, though single readings scatter. No potency is given beside an inconclusive call; the fits are too rough.
# Experiment: VP16 counterscreen qHTS for inhibitors of ROR gamma transcriptional activity;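 note: Gal4-VP16 expression switched on by copper sulfate through the metallothionein promoter; nearly all actives have a fitted effect of over 50% in size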
# Conditions: Drosophila S2 Gal4-VP16 UAS-luciferase, luminescence, 20 h; series mostly up to 53.6 µM
# Potency is the fitted concentration of half-maximal effect; tags give direction and shape of the fitted curve.
row,SMILES,Potency
1,Cc1ccccc1N1CCN(CCCN2C(=O)CC(=C(c3ccccc3)c3ccccc3)C2=O)CC1,"inconclusive [inhibitor, single point]"
2,CN1CCN(/C=N/c2sc3c(c2C#N)CCCCC3)CC1,inactive
3,O=C(NCc1n[nH]c(=S)n1-c1ccc(Cl)c(Cl)c1)c1cccs1,inactive
4,Cc1ccc(-n2c(-c3ccccc3)n[nH]c2=S)c(C)c1,active: 4.47 µM
5,Cc1cc(SCC(=O)c2cc3ccccc3o2)nc2ccccc12,"inconclusive [inhibitor, single point]"
6,Cc1ccc(CNCC(O)(c2ccccc2)c2ccc(F)cc2)cc1 (stereo not given),"inconclusive [inhibitor, single point]"
7,Cc1ccc(C2CC(=O)Oc3ccc(O)cc32)cc1 (stereo not given),inactive
8,CN(C)CCCN1C(=O)c2cccc3c([N+](=O)[O-])ccc(c23)C1=O,active: 1.12 µM
9,CC(C)Oc1cc(NC(=O)CSCC(=O)Nc2cccc(C(F)(F)F)c2)c(Cl)cc1Cl,"inconclusive [inhibitor, single point]"
10,CCOc1ccc(C2C(C#N)=C(N)SC(N)=C2C#N)cc1OCC,active: 7.94 µM
11,CCOC(=O)Cc1csc(NC(=O)c2ccc(S(=O)(=O)N3CCCCC3)cc2)n1,"inconclusive [inhibitor, single point]"
12,COc1cccc(C2=NN(C(C)=O)C(c3cccs3)C2)c1 (stereo not given),inactive
13,Cc1[nH]n(C(N)=S)c(=O)c1N=Nc1ccc(Br)cc1,active: 2 µM
14,Cc1ccc(NC(=S)NNC(=O)CCn2cc(C)cn2)cc1,active: 1.41 µM
15,CSCc1ccc(C(=O)NCCSc2ccc(Br)cc2)cc1,"inconclusive [activator, single point]"
16,O=C(O)c1cccc(NC(=S)NC(NC(=O)c2ccco2)C(Cl)(Cl)Cl)c1 (stereo not given),inactive
17,Cc1cc(C)cc(NC(=S)NCc2ccc3[nH]c4c(c3c2)CCCC4)c1,active: 7.08 µM
18,COc1ccc(NC(=O)CCCN2C(=O)/C(=C\c3ccco3)SC2=S)cc1,"inconclusive [inhibitor, partial curve]"
19,O=C(Nc1ccc(C(=O)O)cc1)/C(=C/c1ccc([N+](=O)[O-])cc1)NC(=O)c1ccccc1,inactive
20,COc1cccc(NC(=S)NC(=O)/C=C/c2ccco2)c1,"inconclusive [inhibitor, single point]"
21,COc1ccc(C(=O)c2c(C(F)(F)F)oc3c2C(=O)c2ccccc2C3=O)cc1,inactive
22,Fc1ccc2[nH]c3c(N4CCc5ccccc5C4)ncnc3c2c1,active: 3.16 µM
23,CCc1ccc(N2C(=O)c3sc4nnc(C)c(=O)n4c3C2=O)cc1,inactive
24,COC(=O)c1cccc(OCC(O)Cn2cnc3cc(C)c(C)cc32)c1 (stereo not given),"inconclusive [inhibitor, single point]"
25,CCCCC(C)/C=C(C)/C=C(\C)C(=O)NC1=CC(O)(/C=C/C=C/C=C/C(=O)NC2=C(O)CCC2=O)C2OC2C1=O (stereo not given),active: 1.26 µM

row,SMILES,Potency
1,S=c1[nH]nc(-c2cc(-c3ccccc3)n[nH]2)n1/N=C/c1ccc(Cl)c(Cl)c1,active: 7.94 µM
2,Cc1cccc(CSCCNC(=S)Nc2ccccc2)c1,active: 5.62 µM
3,Cc1ccc(Nc2nc(N3CCN(C)CC3)nc(N)c2[N+](=O)[O-])cc1C,"inconclusive [inhibitor, single point]"
4,N#CC1(NC(=O)COC(=O)C23CC4CC(CC(O)(C4)C2)C3)CCCCC1,inactive
5,COc1ccc(/C=N/Nc2nc(C)cc(-c3ccccc3)n2)c(OC)c1,active: 11.2 µM
6,c1cc2c(cc1-c1csc(NNC3=NCCCCC3)n1)OCCO2,"inconclusive [inhibitor, single point]"
7,O=C(Nc1nc2c(Cl)cccc2s1)c1ccc([N+](=O)[O-])o1,"inconclusive [inhibitor, single point]"
8,CCOC(=O)c1ccc(NC(=O)c2nc[nH]c2C(=O)NCc2ccccc2)cc1,active: 5.62 µM
9,COc1ccc(OC)c(NC(=O)CSc2nnc(Cc3cccn3C)n2CCc2ccccc2)c1,"inconclusive [inhibitor, single point]"
10,CCCC(=O)NC(=S)Nc1ccc(C(C)=O)cc1,"inconclusive [inhibitor, single point]"
11,CCN(CC)CCCNC1=C(Cl)C(=O)c2ccccc2C1=O,"inconclusive [inhibitor, partial curve]"
12,Cc1nc(N2CCOCC2)nc(Oc2ccccc2F)c1[N+](=O)[O-],inactive
13,CCN(CC)S(=O)(=O)c1cccc(NC(=O)Nc2cccc(C(F)(F)F)c2)c1,inactive
14,O=C(CCCCCN1C(=O)c2cccc3cccc(c23)C1=O)NC1CCS(=O)(=O)C1 (stereo not given),inactive
15,CC(C)n1c(Nc2ccccc2)nc2ccccc21,inactive
16,COc1cccc(/C=C(\C)C(=O)c2c(C)cc(C)[nH]c2=O)c1OC,inactive
17,Oc1ccccc1CNc1cnc2ccccc2c1,"inconclusive [inhibitor, single point]"
18,Cc1ccc(-c2c(C(=O)N/N=C/c3ccco3)nnn2-c2nonc2N)cc1,"inconclusive [inhibitor, single point]"
19,Cc1ccc(-c2nc3ccccc3s2)cc1NC(=S)NC(=O)/C=C/c1ccco1,active: 10 µM
20,N=C1/C(=C/c2cccn2Cc2ccc(Cl)cc2)C(=O)N=C2SC=CN12,active: 5.01 µM
21,O=C(NC(=S)Nc1ccc(Cc2ccncc2)cc1)c1ccccc1,"inconclusive [inhibitor, single point]"
22,N/C(=N\OCc1ccc([N+](=O)[O-])cc1)c1ccccn1,active: 2.51 µM
23,CC(=C/c1ccccc1)/C=N/NC(=O)c1ccccn1,active: 10 µM
24,COC(=O)C1=C(C)NC(C)=C(C(=O)OC(C)(C)CN(C)CCC(c2ccccc2)c2ccccc2)C1c1cccc([N+](=O)[O-])c1 (stereo not given),"inconclusive [inhibitor, partial curve]"
25,Cc1ccccc1NC(=S)N/N=C/C(C)c1ccccc1 (stereo not given),active: 8.91 µM
